In the supplement of paper PMC3334620:
The full ranking holds about 33,000 sequences; the median of “E-score (-0.5 to 0.5)” is about -0.016, and the highest 2% start at about 0.31. The list shows a part of the results.

Each sequence was assayed against Cst6 (UniProt P40535) (assay: PBM E-score (8-mer binding enrichment) (E-score (-0.5 to 0.5)); higher = stronger / more preferred TF binding; most listed sequences are background and not binding sites). Details: protein concentration: 200 nM; construct: GST-DNA-binding domain.
Experimental: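 Universal 'all 10-mer' protein binding microarrays (Agilent AMADID 015681) probed with GST-tagged S. cerevisiae TFs (full-length or DBD) made by in vitro transcription/translation (PURExpress), about 100-200 nM. Bound TF was detected with fluorescent anti-GST. Each ungapped 8-mer (which stands for itself and its reverse complement) is scored by the PBM enrichment score (E-score), a modified Wilcoxon-Mann-Whitney statistic from -0.5 to +0.5, computed with the Universal PBM Analysis Suite. Scale: above 0.35 generally sequence-specific binding.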
AGAGGGAA was tested, and the “PBM E-score” value was -0.301. With CCGCAACC the “PBM E-score” value was -0.0497. With TGCATACA the “PBM E-score” value was 0.187. CGGTACTA was tested, and the “PBM E-score” value was -0.129. With GTAGTCTA the “PBM E-score” value was 0.0199. In the case of CTACTAAG, the “PBM E-score” value is reported as -0.0171. In the case of ATCCCGAA, the “PBM E-score” value is reported as 0.00888. With TAAATTGA the “PBM E-score” value was 0.188. For AATGTTCT, the “PBM E-score” value was 0.0905. For AGAGCATG, the “PBM E-score” value was -0.224. In the case of AGTAAACT, the “PBM E-score” value is reported as 0.116. In the case of AAATAGGT, the “PBM E-score” value is reported as 0.0285. GCGGACGA was tested, and the “PBM E-score” value was 0.0337. ACCTGAAG was tested, and the “PBM E-score” value was -0.148. For AGCGCGTA, the “PBM E-score” value was 0.177. In the case of CGCAAATC, the “PBM E-score” value is reported as -0.0243. AAGCCTGT was tested, and the “PBM E-score” value was -0.0963. CGACTGTC was tested, and the “PBM E-score” value was -0.154. In the case of CGCCGCAC, the “PBM E-score” value is reported as 0.258. For CTGCCACA, the “PBM E-score” value was -0.121. In the case of ACGCTCAA, the “PBM E-score” value is reported as 0.0731. In the case of CGCGCCCG, the “PBM E-score” value is reported as -0.265. AGCACAAG was tested, and the “PBM E-score” value was -0.151. With AGATCCGA the “PBM E-score” value was -0.0352. With ATTTCCGC the “PBM E-score” value was -0.00519. CGAGAGCA was tested, and the “PBM E-score” value was 0.0243. For AATTTCCC, the “PBM E-score” value was -0.0382. AGACCGGA was tested, and the “PBM E-score” value was -0.142. With ATCCCCTA the “PBM E-score” value was -0.332. With AACCGGTC the “PBM E-score” value was -0.0896. In the case of CTTGAAAA, the “PBM E-score” value is reported as 0.216. In the case of CAGGCTAA, the “PBM E-score” value is reported as -0.131. For CGAAAACA, the “PBM E-score” value was 0.107. For GTTACCTA, the “PBM E-score” value was -0.0465. For CATTAGCC, the “PBM E-score” value was -0.0736. For AGCCGACC, the “PBM E-score” value was -0.292. For CCACTGAA, the “PBM E-score” value was 0.0641. In the case of CGTTGAAA, the “PBM E-score” value is reported as -0.0591. ACGAGATG was tested, and the “PBM E-score” value was 0.0179. GCGTAAAA was tested, and the “PBM E-score” value was 0.0958. ATGCGATG was tested, and the “PBM E-score” value was -0.00846. For GCTCTCTA, the “PBM E-score” value was -0.149. TCACCAAA was tested, and the “PBM E-score” value was 0.326. In the case of CTTTTAGC, the “PBM E-score” value is reported as -0.0444. GGATGATA was tested, and the “PBM E-score” value was 0.125. With AACTCTAA the “PBM E-score” value was 0.00936. CTGGCCAG was tested, and the “PBM E-score” value was -0.187. CTCTAAAC was tested, and the “PBM E-score” value was -0.0277. With GCGAGCAA the “PBM E-score” value was -0.168. In the case of AACTATTC, the “PBM E-score” value is reported as 0.0444. For ACTCCACC, the “PBM E-score” value was -0.0992. GGTGGTCA was tested, and the “PBM E-score” value was -0.102. In the case of TGTGGAAA, the “PBM E-score” value is reported as 0.186. For ATCTTTTC, the “PBM E-score” value was 0.249. For AGGCAGAG, the “PBM E-score” value was -0.0845. In the case of ATTCCCGC, the “PBM E-score” value is reported as 0.102. In the case of CCCGCTGA, the “PBM E-score” value is reported as -0.223. In the case of AGGAGCCG, the “PBM E-score” value is reported as -0.0197. CCCTATTC was tested, and the “PBM E-score” value was -0.204. In the case of AGAGAACA, the “PBM E-score” value is reported as 0.195. In the case of ACATAGCC, the “PBM E-score” value is reported as -0.0756. With GTTATCGA the “PBM E-score” value was -0.0748. For ACTTAAAA, the “PBM E-score” value was 0.185. In the case of ATGCGCGC, the “PBM E-score” value is reported as 0.153. ACGGTTGC was tested, and the “PBM E-score” value was -0.0609. In the case of AAGGGGCC, the “PBM E-score” value is reported as -0.178. With CTGGCCAA the “PBM E-score” value was -0.0734. CGGCTATC was tested, and the “PBM E-score” value was -0.0401. With CACATTCC the “PBM E-score” value was -0.0912. In the case of CCCATAGG, the “PBM E-score” value is reported as -0.175. With GTATCAAA the “PBM E-score” value was 0.148. For CCTTGGCA, the “PBM E-score” value was -0.209. AAGCCCTA was tested, and the “PBM E-score” value was 0.0415. With CTTAACAC the “PBM E-score” value was 0.0258. With CCCTGCAA the “PBM E-score” value was -0.0363. For ACGGGAGT, the “PBM E-score” value was -0.0995. CACCTCGC was tested, and the “PBM E-score” value was -0.189. For AGTTATTG, the “PBM E-score” value was 0.0718. CAAGCGTA was tested, and the “PBM E-score” value was -0.00411. In the case of AAGCTTGC, the “PBM E-score” value is reported as -0.0166. With GGACGCTA the “PBM E-score” value was -0.138. For CCGTAGAA, the “PBM E-score” value was -0.0325. For ACCGCGAC, the “PBM E-score” value was 0.0329. GGCCCATA was tested, and the “PBM E-score” value was -0.154. With TTAAGAAA the “PBM E-score” value was 0.114. With AAAAATAA the “PBM E-score” value was 0.292. CACGTGGG was tested, and the “PBM E-score” value was -0.0725. For AGAAAATA, the “PBM E-score” value was 0.205. For CCCGGTCC, the “PBM E-score” value was -0.304. GCTCAAGC was tested, and the “PBM E-score” value was -0.0645. For ATTCCCGG, the “PBM E-score” value was 0.041. With AGGTAGAG the “PBM E-score” value was -0.201. For CGGCAGTA, the “PBM E-score” value was 0.0101. In the case of ACAGCGAC, the “PBM E-score” value is reported as -0.145. In the case of TGGCCCCA, the “PBM E-score” value is reported as -0.31. For ACTTGGGC, the “PBM E-score” value was -0.114. In the case of CCTAAGAG, the “PBM E-score” value is reported as -0.0395. With AGAGAACC the “PBM E-score” value was -0.218. With AAATCTTC the “PBM E-score” value was 0.0186. In the case of GAATTCCA, the “PBM E-score” value is reported as 0.123. With ACCTGCCT the “PBM E-score” value was -0.0953. In the case of ATACGGAA, the “PBM E-score” value is reported as 0.145. For CTAGATAG, the “PBM E-score” value was -0.197. For CCGATCGA, the “PBM E-score” value was 0.046. AGTCACGC was tested, and the “PBM E-score” value was -0.07. TCCCAGGA was tested, and the “PBM E-score” value was -0.272. For GATAGAAA, the “PBM E-score” value was 0.0795. In the case of CGTCCAGA, the “PBM E-score” value is reported as -0.109. In the case of GCATATCC, the “PBM E-score” value is reported as -0.156. For ACGTGTAC, the “PBM E-score” value was 0.113. For CTCGCCGA, the “PBM E-score” value was -0.136. For AGTATAAT, the “PBM E-score” value was 0.144. With ATCGGATC the “PBM E-score” value was 0.0363. In the case of AGGCGTTA, the “PBM E-score” value is reported as 0.0945. For CAATCCAA, the “PBM E-score” value was 0.0209. For CAAAGATA, the “PBM E-score” value was 0.202. For TACTACCA, the “PBM E-score” value was -0.209. For GACTACTC, the “PBM E-score” value was -0.00616. In the case of CCGTGCAG, the “PBM E-score” value is reported as 0.153. For ATCTTGCA, the “PBM E-score” value was 0.199. CCGGACAC was tested, and the “PBM E-score” value was -0.327. For GAAGCACC, the “PBM E-score” value was -0.0259. With CCTGAATA the “PBM E-score” value was 0.0941. In the case of CACACAGC, the “PBM E-score” value is reported as 0.157. With AATATTGC the “PBM E-score” value was 0.257. With AATGACGA the “PBM E-score” value was 0.451. For CCTTGTCA, the “PBM E-score” value was -0.097. For AGCGCTCA, the “PBM E-score” value was -0.15. In the case of AAATGTGA, the “PBM E-score” value is reported as 0.121. For AGATACTG, the “PBM E-score” value was 0.112. In the case of ACTCTCAC, the “PBM E-score” value is reported as -0.0237. For CATAATAA, the “PBM E-score” value was 0.267. AATTGCGT was tested, and the “PBM E-score” value was 0.315. ACCGTATA was tested, and the “PBM E-score” value was -0.0183. For AGACGGAT, the “PBM E-score” value was 0.122. In the case of ATAGAAAA, the “PBM E-score” value is reported as 0.145. In the case of AAGCCGCT, the “PBM E-score” value is reported as -0.0568. For CAGAGGCA, the “PBM E-score” value was -0.0873. In the case of CGAATTCG, the “PBM E-score” value is reported as 0.00769. In the case of GAACGCGA, the “PBM E-score” value is reported as -0.0165. AGAGCAGA was tested, and the “PBM E-score” value was -0.00156. ATATGTAC was tested, and the “PBM E-score” value was 0.145. With CGCGCACC the “PBM E-score” value was 0.0102. For AATATTTA, the “PBM E-score” value was 0.305. For ATGCACTG, the “PBM E-score” value was -0.087. For AAATTCGA, the “PBM E-score” value was -0.0273. In the case of GGCATTGA, the “PBM E-score” value is reported as 0.0677. With AGATCGAC the “PBM E-score” value was -0.0171. For TCCACACA, the “PBM E-score” value was 0.101. CTAAAAAG was tested, and the “PBM E-score” value was 0.0907. With CAGTGTCG the “PBM E-score” value was -0.156. For GCCAAGGC, the “PBM E-score” value was -0.223. For CCAAATGA, the “PBM E-score” value was 0.191. For AGCTGGGC, the “PBM E-score” value was -0.301. GCAGTCAA was tested, and the “PBM E-score” value was -0.184. With CGAACGCC the “PBM E-score” value was -0.107. AGCGGAAT was tested, and the “PBM E-score” value was -0.0286. In the case of GATCATTA, the “PBM E-score” value is reported as 0.215. With ACACGGTC the “PBM E-score” value was -0.0984. AGTTACAG was tested, and the “PBM E-score” value was 0.0901. For CACGATAG, the “PBM E-score” value was -0.00952. In the case of CCAACACC, the “PBM E-score” value is reported as -0.294. With AAAGTGTG the “PBM E-score” value was 0.115. AAAACTCC was tested, and the “PBM E-score” value was -0.175. With GTCGTAAA the “PBM E-score” value was 0.159. AGAACAAT was tested, and the “PBM E-score” value was 0.25. With CGTATAGC the “PBM E-score” value was 0.0302. For ATTGGGAG, the “PBM E-score” value was -0.0503. For ACCAAAGA, the “PBM E-score” value was 0.143. TAGCAATA was tested, and the “PBM E-score” value was 0.165. CACTACTC was tested, and the “PBM E-score” value was 0.0119. CGTATATA was tested, and the “PBM E-score” value was 0.269.
